According to the supplement of paper PMC8728848:
The list shows a part of the results.

How the values were obtained:
Test in all cases: glycan array binding signal (z-score within array); higher = stronger binding
Settings in all cases: glycan notation: IUPAC condensed, linker removed
[1] = target: Gal(b1-3)GlcNAc(b1-3)GalNAc
In short: (§1)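 The binding signal is a Z-score computed within each array and averaged over linkers. Arrays of the same protein sequence at different concentrations or buffers were also averaged together. Data originate from 3228 arrays in the Consortium for Functional Glycomics database, kept only where the protein sequence was available.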

[2] = target: Gal(b1-3)GlcNAc(b1-6)Gal(b1-4)GlcNAc
In short: as §1

[3] = target: Gal(b1-3)GlcNAc(b1-6)GalNAc
In short: as §1

[4] = target: Gal(b1-3)GlcNAc(b1-6)[Gal(b1-3)]GalNAc
In short: as §1

[5] = target: Gal(b1-3)GlcNAc6S
In short: as §1

[6] = target: Gal(b1-3)[Fuc(a1-4)]GlcNAc
In short: as §1

[7] = target: Gal(b1-3)[Fuc(a1-4)]GlcNAc(b1-2)Man
In short: as §1

[8] = target: Gal(b1-3)[Fuc(a1-4)]GlcNAc(b1-2)Man(a1-3)[Gal(b1-3)[Fuc(a1-4)]GlcNAc(b1-2)Man(a1-6)]Man(b1-4)GlcNAc(b1-4)[Fuc(a1-6)]GlcNAc
In short: as §1

[9] = target: Gal(b1-3)[Fuc(a1-4)]GlcNAc(b1-3)Gal(b1-3)[Fuc(a1-4)]GlcNAc
In short: as §1

[10] = target: Gal(b1-3)[Fuc(a1-4)]GlcNAc(b1-3)Gal(b1-4)GlcNAc
In short: as §1

[11] = target: Gal(b1-3)[Fuc(a1-4)]GlcNAc(b1-3)Gal(b1-4)[Fuc(a1-3)]GlcNAc
In short: as §1

[12] = target: Gal(b1-3)[Fuc(a1-4)]GlcNAc(b1-6)GalNAc
In short: as §1

[13] = target: Gal(b1-3)[GlcNAc(b1-6)]GalNAc
In short: as §1

[14] = target: Gal(b1-3)[Neu5Ac(a2-6)]GalNAc
In short: as §1

[15] = target: Gal(b1-3)[Neu5Ac(a2-6)]GlcNAc(b1-4)Gal(b1-4)Glc
In short: as §1

[16] = target: Gal(b1-3)[Neu5Ac(a2-6)]GlcNAc(b1-6)Gal(b1-4)Glc
In short: as §1

[17] = target: Gal(b1-3)[Neu5Ac(b2-6)]GalNAc
In short: as §1

[18] = target: Gal(b1-4)Gal
In short: as §1

[19] = target: Gal(b1-4)GalNAc(a1-3)[Fuc(a1-2)]Gal(b1-4)GlcNAc
In short: as §1

[20] = target: Gal(b1-4)GalNAc(b1-3)[Fuc(a1-2)]Gal(b1-4)GlcNAc
In short: as §1

[21] = target: Gal(b1-4)Glc
In short: as §1

[22] = target: Gal(b1-4)Glc6S
In short: as §1

[23] = target: Gal(b1-4)GlcNAc
In short: as §1

[24] = target: Gal(b1-4)GlcNAc(a1-6)Gal(b1-4)GlcNAc
In short: as §1

[25] = target: Gal(b1-4)GlcNAc(b1-2)Man
In short: as §1

[26] = target: Gal(b1-4)GlcNAc(b1-2)Man(a1-3)Man(b1-4)GlcNAc(b1-4)GlcNAc
In short: as §1

[27] = target: Gal(b1-4)GlcNAc(b1-2)Man(a1-3)[Gal(b1-4)GlcNAc(b1-2)Man(a1-6)]Man(b1-4)GlcNAc(b1-4)GlcNAc
In short: as §1

[28] = target: Gal(b1-4)GlcNAc(b1-2)Man(a1-3)[Gal(b1-4)GlcNAc(b1-2)Man(a1-6)]Man(b1-4)GlcNAc(b1-4)[Fuc(a1-6)]GlcNAc
In short: as §1

[29] = target: Gal(b1-4)GlcNAc(b1-2)Man(a1-3)[Gal(b1-4)GlcNAc(b1-2)Man(a1-6)][Gal(b1-4)GlcNAc(b1-4)]Man(b1-4)GlcNAc(b1-4)[Fuc(a1-6)]GlcNAc
In short: as §1

[30] = target: Gal(b1-4)GlcNAc(b1-2)Man(a1-3)[Gal(b1-4)GlcNAc(b1-2)Man(a1-6)][GlcNAc(b1-4)]Man(b1-4)GlcNAc(b1-4)[Fuc(a1-6)]GlcNAc
In short: as §1

[31] = target: Gal(b1-4)GlcNAc(b1-2)Man(a1-3)[GlcNAc(b1-2)Man(a1-6)]Man(b1-4)GlcNAc(b1-4)GlcNAc
In short: as §1

[32] = target: Gal(b1-4)GlcNAc(b1-2)Man(a1-3)[GlcNAc(b1-4)][Gal(b1-4)GlcNAc(b1-2)Man(a1-6)]Man(b1-4)GlcNAc(b1-4)GlcNAc
In short: as §1

[33] = target: Gal(b1-4)GlcNAc(b1-2)Man(a1-3)[Man(a1-6)]Man(b1-4)GlcNAc(b1-4)GlcNAc
In short: as §1

[34] = target: Gal(b1-4)GlcNAc(b1-2)Man(a1-6)Man(b1-4)GlcNAc(b1-4)GlcNAc
In short: as §1

[35] = target: Gal(b1-4)GlcNAc(b1-2)Man(a1-6)[GlcNAc(b1-2)Man(a1-3)]Man(b1-4)GlcNAc(b1-4)GlcNAc
In short: as §1

[36] = target: Gal(b1-4)GlcNAc(b1-2)Man(a1-6)[Man(a1-3)]Man(b1-4)GlcNAc(b1-4)GlcNAc
In short: as §1

[37] = target: Gal(b1-4)GlcNAc(b1-2)[Gal(b1-4)GlcNAc(b1-4)]Man(a1-3)[Gal(b1-4)GlcNAc(b1-2)Man(a1-6)]Man(b1-4)GlcNAc(b1-4)GlcNAc
In short: as §1

B1: DBA (Dolichos biflorus) (protein)
chain: ANIQSFSFKNFNSPSFILQGDATVSSGKLQLTKVKENGFPLRFPSGRAFYSSPIQIYDKFTGAVASWATSFTVKISAPSKASFADGIAFALVPVGSEPRRNGGYLGVFDSDVYNNSAQTVAVEFDTLSNSGWDPSMKHIGIDVNSIKSIATVSWDLANGENAEILITYNAATSLLVVSLVHPSRRTSYILSERVDITNELPEYVGVGFSATTGLSEGYIETHDVLSWSFASRLPDDSTAEPLDLARYLVRNVL
**Q.** For B1, which “glycan array binding signal (z-score)” value [1] is on record?
**A.** -0.126

**Q.** What about the “glycan array binding signal (z-score)” value [2] of the same binder?
**A.** -0.131

**Q.** What about the “glycan array binding signal (z-score)” value [3] of the same binder?
**A.** -0.19

**Q.** And the “glycan array binding signal (z-score)” value [4]?
**A.** -0.089

**Q.** And the “glycan array binding signal (z-score)” value [5]?
**A.** -0.12

**Q.** What about the “glycan array binding signal (z-score)” value [6] of the same binder?
**A.** -0.116

**Q.** What about the “glycan array binding signal (z-score)” value [7] of the same binder?
**A.** -0.1

**Q.** And the “glycan array binding signal (z-score)” value [8]?
**A.** -0.036

**Q.** What about the “glycan array binding signal (z-score)” value [9] of the same binder?
**A.** -0.109

**Q.** And the “glycan array binding signal (z-score)” value [10]?
**A.** -0.177

**Q.** What about the “glycan array binding signal (z-score)” value [11] of the same binder?
**A.** -0.119

**Q.** And the “glycan array binding signal (z-score)” value [12]?
**A.** -0.136

**Q.** What about the “glycan array binding signal (z-score)” value [13] of the same binder?
**A.** -0.102

**Q.** What about the “glycan array binding signal (z-score)” value [14] of the same binder?
**A.** -0.129

**Q.** What about the “glycan array binding signal (z-score)” value [15] of the same binder?
**A.** -0.136

**Q.** What about the “glycan array binding signal (z-score)” value [16] of the same binder?
**A.** -0.181

**Q.** What about the “glycan array binding signal (z-score)” value [17] of the same binder?
**A.** -0.151

**Q.** And the “glycan array binding signal (z-score)” value [18]?
**A.** -0.173

**Q.** What about the “glycan array binding signal (z-score)” value [19] of the same binder?
**A.** -0.118

**Q.** And the “glycan array binding signal (z-score)” value [20]?
**A.** -0.147

**Q.** What about the “glycan array binding signal (z-score)” value [21] of the same binder?
**A.** -0.123

**Q.** What about the “glycan array binding signal (z-score)” value [22] of the same binder?
**A.** -0.12

**Q.** And the “glycan array binding signal (z-score)” value [23]?
**A.** -0.116

**Q.** What about the “glycan array binding signal (z-score)” value [24] of the same binder?
**A.** -0.124

**Q.** What about the “glycan array binding signal (z-score)” value [25] of the same binder?
**A.** -0.106

**Q.** What about the “glycan array binding signal (z-score)” value [26] of the same binder?
**A.** -0.093

**Q.** What about the “glycan array binding signal (z-score)” value [27] of the same binder?
**A.** -0.143

**Q.** What about the “glycan array binding signal (z-score)” value [28] of the same binder?
**A.** -0.066

**Q.** What about the “glycan array binding signal (z-score)” value [29] of the same binder?
**A.** -0.085

**Q.** What about the “glycan array binding signal (z-score)” value [30] of the same binder?
**A.** -0.157

**Q.** What about the “glycan array binding signal (z-score)” value [31] of the same binder?
**A.** -0.111

**Q.** What about the “glycan array binding signal (z-score)” value [32] of the same binder?
**A.** -0.152

**Q.** And the “glycan array binding signal (z-score)” value [33]?
**A.** -0.109

**Q.** And the “glycan array binding signal (z-score)” value [34]?
**A.** -0.103

**Q.** What about the “glycan array binding signal (z-score)” value [35] of the same binder?
**A.** -0.093

**Q.** What about the “glycan array binding signal (z-score)” value [36] of the same binder?
**A.** -0.145

**Q.** And the “glycan array binding signal (z-score)” value [37]?
**A.** -0.062
